# Read counts are not given, so values of variants with three or more changes are uncertain.
# B1: CPEB3 Ribozyme (parent)
# chain: UAACAGGGGGCCACAGCAGAAGCGUUCACGUCGCAGCCCCUGUCAGAUUCUGGUGAAUCUGCGAAUUCUGCUGUAUAUCUC
# Variants of: B1
# Assay: self-cleavage, relative activity (ratio to wild type); higher = more cleavage; in vitro, sequencing
# Summary of the method: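 Relative activity compares each variant's cleaved/total read fraction with that of the unmutated ribozyme. To get these fractions, barcoded CPEB3 ribozyme libraries from rounds of error-prone PCR were transcribed with T7 RNA polymerase for 5 hours at 37°C and then given 15 min of DNase I treatment before EDTA was added. The RNAs were reverse transcribed with template switching and sequenced on Illumina, and DNA sequencing linked barcodes to variants. A minimum of 5 reads applied, and three batches were averaged.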
row,Variant,self-cleavage
1,UAACAGGGGGCCACAGCAGAAGCGUUCACGUCGCAGCCCCUGUCAGGUUCCGGUGAAUCUGCGAGUUCUGCUGUACAUCUC,0.45
2,UAACAGGGGGCCACAGCAGAAGCGUUCACGUCGCAGCCCCUGUCAGGUUCCGGUGAACCCGCGAAUUCUGCCGUAGAUCUC,0.39
3,UAACAGGGGGCCACAGCAGAAGCGUUCACGUCGCAGCCCCUGUCAGGUUCGGGUGACUCUGCGAAUUCUGCUGUAUAUCUC,0.18
4,UAACAGGGGGCCACAGCAGAAGCGUUCACGUCGCAGCCCCUGUCAGGUUCGGGUGAAUCUGCGAAUCCUGCUGUAAAUCUC,0.2
5,UAACAGGGGGCCACAGCAGAAGCGUUCACGUCGCAGCCCCUGUCAGGUUCUGGAGAAUCUGCGAAUUCAGCUGUGUAUCUC,0.79
6,UAACAGGGGGCCACAGCAGAAGCGUUCACGUCGCAGCCCCUGUCAGGUUCUGGAGAAUCUGCGAAUUCUGCAGUAUAUCUC,0.7
7,UAACAGGGGGCCACAGCAGAAGCGUUCACGUCGCAGCCCCUGUCAGGUUCUGGCGGAUCUGCGAAUUCUGCUGUAUAUCUC,0.43
8,UAACAGGGGGCCACAGCAGAAGCGUUCACGUCGCAGCCCCUGUCAGGUUCUGGCGAAUCUGCGAGUUCUGCUGUAUAUCUC,0.36
9,UAACAGGGGGCCACAGCAGAAGCGUUCACGUCGCAGCCCCUGUCAGGUUCUGGCGAAUCUGCGAGUUCCGCUGUAUAUCUC,0.19
10,UAACAGGGGGCCACAGCAGAAGCGUUCACGUCGCAGCCCCUGUCAGGUUCUGGCGAAUCUGCGAAUUCUGCUGUAUAUAUC,1.2
11,UAACAGGGGGCCACAGCAGAAGCGUUCACGUCGCAGCCCCUGUCAGGUUCUGGCGAAUCUGCUAAUACUGCUGUAUAUCUC,0.49
12,UAACAGGGGGCCACAGCAGAAGCGUUCACGUCGCAGCCCCUGUCAGGUUCUGGCGAAACUGCGAAUUCAGCUGUAUCUCUC,0.16
13,UAACAGGGGGCCACAGCAGAAGCGUUCACGUCGCAGCCCCUGUCAGGUUCUGGCGAAUCUGCGAAAUCUGCUGUAUAUCUC,0.62
14,UAACAGGGGGCCACAGCAGAAGCGUUCACGUCGCAGCCCCUGUCAGGUUCUGGCGAAUCUGCGAAUUCUGCUGUACGUCUC,0.8
15,UAACAGGGGGCCACAGCAGAAGCGUUCACGUCGCAGCCCCUGUCAGGUUCUGGGGAAUCUGCGAAUUCUGCUGUAUACCUC,0.66
16,UAACAGGGGGCCACAGCAGAAGCGUUCACGUCGCAGCCCCUGUCAGGUUCUGGUGAACCUGCGGAUUCUGCUGUAUAUCUC,0.71
17,UAACAGGGGGCCACAGCAGAAGCGUUCACGUCGCAGCCCCUGUCAGGUUCUGGUGAACCAGCGAACUCUGCUGUAUAUCUC,0.14

row,Variant,self-cleavage
1,UAACAGGGGGCCACAGCAGAAGCGUUCACGUCGCAGCCCCUGUCAGGUUCUGGUGAACCUGCGAAUACUGCCGUAUAUCUC,0.43
2,UAACAGGGGGCCACAGCAGAAGCGUUCACGUCGCAGCCCCUGUCAGGUUCUGGUGAACCUGCGAAUUCUGCUGUAUAUCCC,1.18
3,UAACAGGGGGCCACAGCAGAAGCGUUCACGUCGCAGCCCCUGUCAGGUUCUGGUGAAUCAGCGAGUUCUGCUGUAUAUCUC,0.21
4,UAACAGGGGGCCACAGCAGAAGCGUUCACGUCGCAGCCCCUGUCAGGUUCUGGUGAAUCAGCGAAUCCUGCUGUAUAUCUC,0.32
5,UAACAGGGGGCCACAGCAGAAGCGUUCACGUCGCAGCCCCUGUCAGGUUCUGGUGAAUCAGCGAAUGCUGCUGUAUAUCUC,0.09
6,UAACAGGGGGCCACAGCAGAAGCGUUCACGUCGCAGCCCCUGUCAGGUUCUGGUGAAUCAGCGAAUUCUGCAGUAUACCUC,0.21
7,UAACAGGGGGCCACAGCAGAAGCGUUCACGUCGCAGCCCCUGUCAGGUUCUGGUGAAUCAGCGAAUUCUGCUGUAUACCUC,0.39
8,UAACAGGGGGCCACAGCAGAAGCGUUCACGUCGCAGCCCCUGUCAGGUUCUGGUGAAUCCGCGGAUUCUGCCGUAUAUCUC,0.38
9,UAACAGGGGGCCACAGCAGAAGCGUUCACGUCGCAGCCCCUGUCAGGUUCUGGUGAAUCCGCGAAAUCUGCUGUAUAUCUC,0.25
10,UAACAGGGGGCCACAGCAGAAGCGUUCACGUCGCAGCCCCUGUCAGGUUCUGGUGAAUCCGCGAAUUCUGCAGUAUAUCUC,0.22
11,UAACAGGGGGCCACAGCAGAAGCGUUCACGUCGCAGCCCCUGUCAGGUUCUGGUGAAUCCGCGAAUUCUGCCGUAUAUCUC,0.2
12,UAACAGGGGGCCACAGCAGAAGCGUUCACGUCGCAGCCCCUGUCAGGUUCUGGUGAAUCCGCGAAUUCUGCUGUACAUCUC,0.34
13,UAACAGGGGGCCACAGCAGAAGCGUUCACGUCGCAGCCCCUGUCAGGUUCUGGUGAAUCCGCGAAUUCUGCUGUAUAACCC,0.19
14,UAACAGGGGGCCACAGCAGAAGCGUUCACGUCGCAGCCCCUGUCAGGUUCUGGUGAAUCGGCGAAUCCUGCUGCAUAUCCC,0.22
15,UAACAGGGGGCCACAGCAGAAGCGUUCACGUCGCAGCCCCUGUCAGGUUCUGGUGAAUCUGCGAACUCUGCUGUAUUACUC,0.49
16,UAACAGGGGGCCACAGCAGAAGCGUUCACGUCGCAGCCCCUGUCAGGUUCUGGUGAAUCUGCGAAUACUGCUGUAUACCUC,0.28
17,UAACAGGGGGCCACAGCAGAAGCGUUCACGUCGCAGCCCCUGUCAGGUUCUGGUGAAUCUGCGAAUCCUGCAGUAUAUCUC,0.17
